Assay results: the supplement of paper PMC7125110
± gives the standard error. Variants at the floor of the assay are shown more often than the library holds them.

B1: glmS ribozyme (parent)
chain: AUAAAAGCGCCAGAACUACAGAAAUGUAGUUGACGAGGAGGAGGUUUAUCGAAUUUUCGGCGGAUGCCUCCAAA

What was measured:
Details in all cases: with glucosamine-6-phosphate
glucosamine-6-phosphate [1] = variants of: B1; experiment: self-cleavage kobs at 640 uM GlcN6P; higher = faster cleavage; RNA array
Procedure, shortened: (§1)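 Barcoded ribozyme variants, transcribed in situ by E. coli RNA polymerase on sequenced MiSeq chips, were followed via a hybridised Cy3 probe at 37 °C. Glucosamine-6-phosphate ranged from 40 μM to 10 mM in HEPES/KCl/Mg(OAc)2 buffer. kobs came from decay fits to per-tile medians, and kcat and KM from weighted Michaelis–Menten fits.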

glucosamine-6-phosphate [2] = variants of: B1; experiment: self-cleavage kobs at 160 uM GlcN6P; higher = faster cleavage; RNA array
Procedure, shortened: as §1

glucosamine-6-phosphate [3] = variants of: B1; experiment: self-cleavage kobs at 2500 uM GlcN6P; higher = faster cleavage; RNA array
Procedure, shortened: as §1

glucosamine-6-phosphate [4] = variants of: B1; experiment: self-cleavage kobs at 10000 uM GlcN6P; higher = faster cleavage; RNA array
Procedure, shortened: as §1

Row | Variant | self-cleavage kobs at 640 uM GlcN6P (glucosamine-6-phosphate [1]) [s⁻¹] | self-cleavage kobs at 160 uM GlcN6P (glucosamine-6-phosphate [2]) [s⁻¹] | self-cleavage kobs at 2500 uM GlcN6P (glucosamine-6-phosphate [3]) [s⁻¹] | self-cleavage kobs at 10000 uM GlcN6P (glucosamine-6-phosphate [4]) [s⁻¹]
1 | C10U A39U U57A | < 1e-05 | < 1e-05 | < 1e-05 | 
2 | C10U G38A C50U | < 1e-05 |  |  | 
3 | C11G A42C | < 1e-05 | < 1e-05 | < 1e-05 | 
4 | C10U U30C U55C | < 1e-05 |  |  | 
5 | C11U G40C U47C | < 1e-05 |  |  | 
6 | C10U A15C A48U U57A | < 1e-05 |  | < 1e-05 | 
7 | C11G A48U C58A A64C | < 1e-05 |  | < 1e-05 | 
8 | A12C A33C G35A G38A | < 1e-05 |  |  | 
9 | A12U G43A G51A | < 1e-05 | < 1e-05 |  | < 1e-05
10 | A12C C16U A52C | < 1e-05 |  |  | 
11 | C11G C50U U57A G60A C67U | 0.000609 ± 0.00017 |  |  | 
12 | A12U A52G G62C | < 1e-05 |  |  | 
13 | C11U C68A C71G | 0.000101 ± 2.3e-05 |  |  | 
14 | A12U G63C | < 1e-05 | < 1e-05 |  | < 1e-05
15 | A12C A15C G38C A48G C67G | < 1e-05 |  |  | 
16 | C10G G29A G62U C71U | < 1e-05 | < 1e-05 | < 1e-05 | 
17 | C11G A14G G63U | < 1e-05 | < 1e-05 |  | 
18 | A12C A42U C50G A52G | < 1e-05 |  |  | 
19 | C11U U46G | 5.11e-05 ± 7.1e-06 |  | 0.00018 ± 2.7e-05 | 0.000204 ± 2.3e-05
20 | C11U A15C A39C U49C | < 1e-05 |  |  | 
21 | A12G G38C A39C C68U C70G C71U | < 1e-05 | < 1e-05 | < 1e-05 | 
22 | C10G G40C C71G | < 1e-05 |  | < 1e-05 | 
23 | C11U G63U U65A | < 1e-05 |  |  | 
24 | C10G A64U | < 1e-05 | < 1e-05 | < 1e-05 | 
25 | G13A A36U G41A G59A G60U U65G | < 1e-05 | < 1e-05 |  | 
26 | C11G A14U G37U G40U | < 1e-05 |  | < 1e-05 | 
27 | G13A A14G U30A C34A | < 1e-05 |  | < 1e-05 | 
28 | C10U A33U G62U C71A | < 1e-05 | < 1e-05 | < 1e-05 | < 1e-05

Row | Variant | self-cleavage kobs at 640 uM GlcN6P (glucosamine-6-phosphate [1]) [s⁻¹] | self-cleavage kobs at 160 uM GlcN6P (glucosamine-6-phosphate [2]) [s⁻¹] | self-cleavage kobs at 2500 uM GlcN6P (glucosamine-6-phosphate [3]) [s⁻¹] | self-cleavage kobs at 10000 uM GlcN6P (glucosamine-6-phosphate [4]) [s⁻¹]
29 | C11U A14G A52G | 8.93e-05 ± 1.6e-05 |  | 0.00029 ± 8e-05 | 
30 | C11U U69A | 0.000191 ± 5.6e-05 | 5.24e-05 ± 1.6e-05 | 0.000157 ± 3.2e-05 | 6.31e-05 ± 1.7e-05
31 | C11U A64C C68G C70U | < 1e-05 |  | < 1e-05 | 
32 | G13A A39G A48U G59U C68G | < 1e-05 |  |  | 
33 | C11U C16G | 0.000104 ± 1.9e-05 |  |  | 
34 | C11U C16A | 4.38e-05 ± 1.9e-05 |  | 0.000106 ± 2.2e-05 | 0.000145 ± 2.9e-05
35 | A12U C34G G35U A39G G63A | < 1e-05 | < 1e-05 | < 1e-05 | 
36 | C11G G13U C50G G60U C61G | 5.02e-05 ± 2.4e-05 |  |  | 
37 | C10U C68G C70U | 0.00013 ± 2.8e-05 | 3.3e-05 ± 1.5e-05 | 5.98e-05 ± 1.4e-05 | 
38 | C11U A33U A39C | < 1e-05 | < 1e-05 |  | 
39 | C11A A14C G35A C50G C71G | 0.000433 ± 0.00014 | 0.000211 ± 3.9e-05 | 0.000131 ± 4.3e-05 | 
40 | C11A U45A G63A | < 1e-05 | < 1e-05 | < 1e-05 | < 1e-05
41 | C10G A39C C68G | < 1e-05 | < 1e-05 | < 1e-05 | 
42 | A12U A15C A42G | 0.00381 ± 0.0017 | 0.00123 ± 0.0005 | 0.0282 ± 0.014 | 
43 | C10G G13A G43A C50U | < 1e-05 |  | < 1e-05 | < 1e-05
44 | C11A A14G U65G | 5.21e-05 ± 1.7e-05 |  | 9.32e-05 ± 2e-05 | 0.000135 ± 1.7e-05
45 | A12G A15U U45C G59A | < 1e-05 |  | < 1e-05 | 
46 | C10G G40U C70U | < 1e-05 |  | < 1e-05 | 
47 | A12C A36U G43U U56A | < 1e-05 | < 1e-05 |  | 
48 | C11G A52C U57C G62C | < 1e-05 |  |  | 
49 | C11G U47G C50A C70G | 0.000245 ± 6.2e-05 |  | 0.000139 ± 4e-05 | 7.52e-05 ± 1.9e-05
50 | C11A U56A C70U C71A | 0.000256 ± 7.9e-05 |  |  | 
51 | C10U C11U G60U G63A | < 1e-05 |  |  | 
52 | C11A A36C A39C U45G G63U | < 1e-05 | < 1e-05 | < 1e-05 | 
53 | A12U A53C C67U | 0.00253 ± 0.0006 |  |  | 
54 | C10G G13A U31G A53U | < 1e-05 |  | < 1e-05 | 
55 | C10G A42U C71U | < 1e-05 |  |  | 
